# Measured values from the supplement of paper PMC12632987.
# Over roughly 4,500 sequences, “median log2 fold change of GCK-ALFA target abundance (FLAG IP / Myc IP barcode read proportion)” has its median near 0.078; the lowest 2% begin near -0.6. Some of the results follow.
# B1: GBRAP_84_7007 (protein)
# chain: SREQEILEITNKILEKGSIELKKKLLTYLILKNENKAATLALNYLLEEDPEAAVEALDEATEAYEEGKEEEVRKELLELAKKEGEEVYALVEELLELIDE
# B2: GBRAP_150_3896 (protein)
# chain: NLEELLTIADTHADILEGMIDSGKYDVTILKTLLKTTEQEIKEAPPEVAKLLTKAADALKKAIALLEAGAPQAEIDAELKKAADAYKEAAELLEKKIEEE
# B3: GBRAP_160_4739 (protein)
# chain: SARIDALVEEARATLLEALELSEGESPEERAAIFRGAAGEVLMDFMSDPSLSDEQEDAAAEILDELVAELVAAADASPEEKRAIVDEHMARLRDTLLALA
# B4: GBRAP_117_2571 (protein)
# chain: SAKLEKAEKEIKEFVEKVAERLEEMKELSEEERKKELEELEEETYELVKKLVEELGKEKTIDLFEEAIADLDAETYFKISVLFENAFSRIEEEEEEEEEE
# B5: GBRAP_31_5502 (protein)
# chain: MTVEEKEALLREYARLAREEGDVDAAVAAAHLIDQMRKAGHDEALKRIVKEFPDLAALLRAARARLEALAAAGNPTAKYILETSGATIDAVIAYLEALRA
# B6: GBRAP_186_5384 (protein)
# chain: EEEAEEEEDRLIDEYEAQGYRVIVSYIEGKSLEEIKESIARDADAVAALAEETGQKWALIVRITTKEEDAEAIRAYVDELNARYLAKTGVVVRAVIANSD
# B7: GBRAP_52_6234 (protein)
# chain: MEERMRELAREIVELVKAGKEEEARKLAKEVAETLNEEELRILVEEFAELARAARPEDLDAVWRAVEIMAEALEEAGRPEILADDLESRTAAAAVEVLAR
# B8: GBRAP_160_4427 (protein)
# chain: SATLEKAKKEIDEIFDETAEMMKGESAEQRIVLVRVAEGEVILELEELGLLTDEVDKVIDERFKAIADTIAANPDISDEELKAMLDAARDAILEELDKVS
# B9: GBRAP_9_7110 (protein)
# chain: KKELAKKVKEIIEDMREELLKVVSEELQPLVIELSQKILDTIDKMEKDPSVTKEELKETTLEMLKQMREELLKKANPEEQAGIETEIATAEWEIEEAYEE
# B10: GBRAP_39_5644 (protein)
# chain: EKEEEDELEYSYLLAVGAAAQYEKGWNDEELKEETIKRLKKLAEEHPEIKELLEKLLEVVENGDLEDVVAAYGIALLAEEGTPLEEIKEHIESFLNYKES
# B11: GBRAP_128_3157 (protein)
# chain: STEEVREETRRLLEEIRESDEEEAREIARELFALILTLSDEEAEAAVEVILELLPELSKEKLEILADVAREMRPEADPFKAELLAEVEVEALNEALELEE
# B12: GBRAP_160_4091 (protein)
# chain: SEKIEEIIEELDELAEETKEMIEGENIEERAIIVEGLGGDVIMLLFESGEVTDEVIDFADKEFDALVAKIKANPDLTLEEIKELIDETIEKIKEKIKEES
# B13: GBRAP_26_5472 (protein)
# chain: LEELFDEFREKLEKKLDELLDPELAAAAKAELDTLVYEAEEKLEKNKNDLEKQEKILEEFLKELGEALETLGVPEEKRKKILEVAKKLAKEILEKLKEKL
# B14: GBRAP_53_6427 (protein)
# chain: MEEKIKELKEKIEKLAEEATKADEAEAKKLTAEIGAALKELKAAGMPDEEITELVEKIARLFKEAGVPDSVLVALANSLAAMGLDDATAEVAEVIVEELE
# B15: GBRAP_11_2847 (protein)
# chain: KKEELEKIAKKADEVIKLIDKLIKEGTDNKKLREEVKKKLEELKKLVEKHLDESSKKLAEYAIEDLEEAEKDPENALEHLNNAKAFVRTLRGQVLLEIEE
# B16: GBRAP_166_4871 (protein)
# chain: SMEERLKKAKKEMLELIKEAAELNADEQVEKYIEIGEIIKKLKEEGLSEEEILKLIEEILKKAKEEGLDVKLLAGIIENVVGFDEEEIDKVEKILKEVLK
# B17: GBRAP_83_6918 (protein)
# chain: KEKIVVAGPADHADELADAVIDLTKEEGYEVDVEILARPEQRPKVLALVDRLAKAGIETRIEVLGFGMTEEEAAALRAEMEAIAAAHGVNIEVEVELLEE
# B18: GBRAP_39_5638 (protein)
# chain: SREEEAEETFDYLEALGAKLLSERGISLDELLEEEYKYAREAFKDDPELLAAIDELYELALKGDDTDKLAAAGAFSLVREGKSKEEVLEAVELLIYYLKS
# B19: GBRAP_80_6770 (protein)
# chain: MEERIEKVIKEIEEIDPEIAKLLERLIEVARELGVPMETILRLAEAILELAKIDKEKARKLVEEALKELEEALKEGDREAALAVLVDAISEALLEVEELE
# Biological target: GABARAP, O95166
# Sequence (O95166 whole entry, the tested form may be a part): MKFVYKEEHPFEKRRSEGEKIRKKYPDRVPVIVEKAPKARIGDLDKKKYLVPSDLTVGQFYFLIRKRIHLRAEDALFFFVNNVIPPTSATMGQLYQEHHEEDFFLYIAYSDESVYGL
# Test: median log2 fold change of GCK-ALFA target abundance (FLAG IP / Myc IP barcode read proportion) (log2 ratio); each designed protein is fused to an ALFA-tag nanobody in HEK293 cells to bring the named protein to FLAG-tagged glucokinase (GCK); Myc marks an untargeted standard; higher = target protein stabilised (more abundant)
# Details: target protein: 3xFLAG-MCP-GCK-ALFA reporter; HEK293 landing pad (RPLP)
# Procedure, shortened: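 The readout is target abundance, the per-binder median log2 ratio of FLAG to Myc barcode read proportions. It came from HEK293 landing-pad cells carrying a recombined ALFA-nanobody-fused binder library, induced with 2 μg mL^−1 doxycycline and transfected with a plasmid for a FLAG-tagged target and a Myc-tagged standard. After 48 h, lysates were immunoprecipitated with anti-FLAG and anti-Myc, and circular RNA barcodes were reverse transcribed, amplified and sequenced. Each barcode needed a proportion of at least 10^−7 in both replicates and each binder at least 3 barcodes per replicate, a pseudocount of 10^−6 was added, and the replicates were pooled.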
row,Binder,median log2 fold change
1,B1,-0.316
2,B2,0.263
3,B3,-0.0595
4,B4,-0.0146
5,B5,0.263
6,B6,-0.0488
7,B7,-0.139
8,B8,-0.348
9,B9,0.16
10,B10,0.118
11,B11,0.00897
12,B12,-0.254
13,B13,0.291
14,B14,0.387
15,B15,0.116
16,B16,0.344
17,B17,0.109
18,B18,0.2
19,B19,0.23
